# According to the supplement of paper PMC12067093, “Discovery and optimisation of a covalent ligand for TRIM25 and its application to targeted protein ubiquitination” (Chemical Science, 2025):
# The full data set covers some 21,000 targets. This sample favours those with the largest changes.
# Compound: Cc1cc(ccc1-c1ccccc1)C(=O)N1CCCN(CC1)C(=O)CCl [compound 10]
# Test: probe-labelled cysteine peptide fold change vs DMSO (competition) (log2 fold change); higher = less target engagement (more negative = stronger competition)
# Conditions: THP-1, incubation time: 4 h
# 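Also: competitive profiling in live THP-1 cells: cysteine peptides tagged with an iodoacetamide desthiobiotin (IA-DTB) probe, intensity after compound treatment relative to DMSO-treated cells.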
# Sequence of UniProt O75891 (O75891 whole entry, looked up): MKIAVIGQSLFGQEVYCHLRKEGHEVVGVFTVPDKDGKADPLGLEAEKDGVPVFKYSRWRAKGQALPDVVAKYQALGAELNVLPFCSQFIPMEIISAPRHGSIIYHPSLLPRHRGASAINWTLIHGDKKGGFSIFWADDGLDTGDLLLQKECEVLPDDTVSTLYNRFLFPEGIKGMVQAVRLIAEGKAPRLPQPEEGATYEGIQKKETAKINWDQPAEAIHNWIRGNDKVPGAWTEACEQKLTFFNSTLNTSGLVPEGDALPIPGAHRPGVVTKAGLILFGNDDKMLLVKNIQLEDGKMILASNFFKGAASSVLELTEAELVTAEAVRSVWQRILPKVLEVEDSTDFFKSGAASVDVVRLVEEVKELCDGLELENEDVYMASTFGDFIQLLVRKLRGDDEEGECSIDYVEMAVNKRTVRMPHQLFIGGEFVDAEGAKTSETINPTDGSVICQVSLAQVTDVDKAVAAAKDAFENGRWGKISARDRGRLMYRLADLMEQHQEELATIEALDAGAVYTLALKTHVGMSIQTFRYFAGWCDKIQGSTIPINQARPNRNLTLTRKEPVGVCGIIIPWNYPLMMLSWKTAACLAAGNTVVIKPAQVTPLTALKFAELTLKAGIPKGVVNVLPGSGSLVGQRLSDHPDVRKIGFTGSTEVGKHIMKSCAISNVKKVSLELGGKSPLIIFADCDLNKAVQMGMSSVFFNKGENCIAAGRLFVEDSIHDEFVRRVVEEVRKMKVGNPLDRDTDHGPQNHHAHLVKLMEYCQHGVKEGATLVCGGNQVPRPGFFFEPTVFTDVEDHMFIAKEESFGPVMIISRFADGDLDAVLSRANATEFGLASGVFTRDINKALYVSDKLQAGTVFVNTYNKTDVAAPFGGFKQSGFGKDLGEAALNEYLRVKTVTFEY
# Sequence of UniProt Q07960 (Q07960 whole entry, looked up): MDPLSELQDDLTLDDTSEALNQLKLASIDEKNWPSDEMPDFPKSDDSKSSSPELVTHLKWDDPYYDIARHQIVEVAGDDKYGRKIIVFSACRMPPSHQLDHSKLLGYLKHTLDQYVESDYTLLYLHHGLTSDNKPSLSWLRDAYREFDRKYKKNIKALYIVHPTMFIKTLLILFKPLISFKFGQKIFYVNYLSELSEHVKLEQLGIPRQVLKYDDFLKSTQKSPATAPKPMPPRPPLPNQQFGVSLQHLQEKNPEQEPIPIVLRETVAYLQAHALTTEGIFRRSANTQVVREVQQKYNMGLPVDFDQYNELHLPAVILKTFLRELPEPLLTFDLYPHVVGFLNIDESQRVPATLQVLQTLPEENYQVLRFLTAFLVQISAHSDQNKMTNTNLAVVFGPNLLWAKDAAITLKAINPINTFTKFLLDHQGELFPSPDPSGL
# Sequence of UniProt P09525 (P09525 whole entry, looked up): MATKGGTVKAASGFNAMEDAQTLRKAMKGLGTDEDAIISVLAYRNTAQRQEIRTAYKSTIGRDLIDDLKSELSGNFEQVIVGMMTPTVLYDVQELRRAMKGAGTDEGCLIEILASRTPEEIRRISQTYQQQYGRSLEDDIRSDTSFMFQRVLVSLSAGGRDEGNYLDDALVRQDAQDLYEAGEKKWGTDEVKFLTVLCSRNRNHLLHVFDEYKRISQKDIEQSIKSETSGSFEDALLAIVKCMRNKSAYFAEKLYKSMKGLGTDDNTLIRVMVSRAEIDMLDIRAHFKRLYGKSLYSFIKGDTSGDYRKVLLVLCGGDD
# Sequence of UniProt O43681 (O43681 whole entry, looked up): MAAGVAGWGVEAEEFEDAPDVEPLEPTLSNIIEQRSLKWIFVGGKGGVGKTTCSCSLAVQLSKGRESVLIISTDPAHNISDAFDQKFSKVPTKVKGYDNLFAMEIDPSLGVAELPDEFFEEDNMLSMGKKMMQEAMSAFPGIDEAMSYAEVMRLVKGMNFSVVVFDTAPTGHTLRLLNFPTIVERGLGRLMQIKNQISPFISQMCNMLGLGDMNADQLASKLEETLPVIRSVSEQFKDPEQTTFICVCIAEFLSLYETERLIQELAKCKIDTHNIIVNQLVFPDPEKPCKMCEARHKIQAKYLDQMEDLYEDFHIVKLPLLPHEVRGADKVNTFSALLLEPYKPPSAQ
# Sequence of UniProt Q9Y2T2 (Q9Y2T2 whole entry, looked up): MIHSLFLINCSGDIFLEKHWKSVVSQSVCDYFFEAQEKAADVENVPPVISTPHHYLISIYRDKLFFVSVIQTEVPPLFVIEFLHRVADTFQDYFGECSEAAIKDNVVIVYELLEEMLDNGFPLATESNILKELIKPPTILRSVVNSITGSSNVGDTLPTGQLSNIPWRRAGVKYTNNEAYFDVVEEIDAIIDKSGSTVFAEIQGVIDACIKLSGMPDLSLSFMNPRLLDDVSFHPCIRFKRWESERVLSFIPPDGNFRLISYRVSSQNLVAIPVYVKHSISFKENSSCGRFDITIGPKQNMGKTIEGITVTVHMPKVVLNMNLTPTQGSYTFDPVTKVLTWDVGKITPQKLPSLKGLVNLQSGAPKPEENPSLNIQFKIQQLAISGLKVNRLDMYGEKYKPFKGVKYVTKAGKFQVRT
# Sequence of UniProt O00203 (O00203 whole entry, looked up): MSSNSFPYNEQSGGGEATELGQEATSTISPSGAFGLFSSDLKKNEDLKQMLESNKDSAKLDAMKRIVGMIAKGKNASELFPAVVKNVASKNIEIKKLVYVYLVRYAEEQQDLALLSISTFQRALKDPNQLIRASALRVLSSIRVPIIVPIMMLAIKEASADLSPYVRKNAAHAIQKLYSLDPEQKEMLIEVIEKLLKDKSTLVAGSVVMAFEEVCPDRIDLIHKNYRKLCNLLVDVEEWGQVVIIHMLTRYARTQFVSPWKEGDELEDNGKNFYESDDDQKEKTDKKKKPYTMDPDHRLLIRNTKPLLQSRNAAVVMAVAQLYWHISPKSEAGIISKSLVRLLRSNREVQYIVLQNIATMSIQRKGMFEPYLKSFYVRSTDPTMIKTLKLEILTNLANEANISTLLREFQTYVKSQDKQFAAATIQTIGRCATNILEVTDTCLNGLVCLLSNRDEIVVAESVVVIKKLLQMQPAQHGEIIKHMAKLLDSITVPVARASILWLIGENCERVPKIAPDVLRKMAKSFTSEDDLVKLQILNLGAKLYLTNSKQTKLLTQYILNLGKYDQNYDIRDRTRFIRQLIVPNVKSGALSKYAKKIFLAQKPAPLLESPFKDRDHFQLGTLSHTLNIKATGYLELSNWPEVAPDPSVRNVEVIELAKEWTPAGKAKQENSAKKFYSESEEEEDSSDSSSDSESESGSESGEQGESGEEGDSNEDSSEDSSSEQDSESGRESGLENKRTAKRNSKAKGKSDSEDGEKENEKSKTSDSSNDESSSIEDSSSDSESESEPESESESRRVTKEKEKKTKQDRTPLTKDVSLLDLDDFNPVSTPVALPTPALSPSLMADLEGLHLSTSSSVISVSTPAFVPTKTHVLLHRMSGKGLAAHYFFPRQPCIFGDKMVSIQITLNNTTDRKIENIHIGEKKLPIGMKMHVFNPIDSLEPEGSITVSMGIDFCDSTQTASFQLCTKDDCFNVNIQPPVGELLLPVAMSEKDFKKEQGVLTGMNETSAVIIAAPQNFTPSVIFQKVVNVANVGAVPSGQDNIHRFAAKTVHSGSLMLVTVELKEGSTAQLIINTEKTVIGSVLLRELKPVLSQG
# Sequence of UniProt Q96CM8 (Q96CM8 whole entry, looked up): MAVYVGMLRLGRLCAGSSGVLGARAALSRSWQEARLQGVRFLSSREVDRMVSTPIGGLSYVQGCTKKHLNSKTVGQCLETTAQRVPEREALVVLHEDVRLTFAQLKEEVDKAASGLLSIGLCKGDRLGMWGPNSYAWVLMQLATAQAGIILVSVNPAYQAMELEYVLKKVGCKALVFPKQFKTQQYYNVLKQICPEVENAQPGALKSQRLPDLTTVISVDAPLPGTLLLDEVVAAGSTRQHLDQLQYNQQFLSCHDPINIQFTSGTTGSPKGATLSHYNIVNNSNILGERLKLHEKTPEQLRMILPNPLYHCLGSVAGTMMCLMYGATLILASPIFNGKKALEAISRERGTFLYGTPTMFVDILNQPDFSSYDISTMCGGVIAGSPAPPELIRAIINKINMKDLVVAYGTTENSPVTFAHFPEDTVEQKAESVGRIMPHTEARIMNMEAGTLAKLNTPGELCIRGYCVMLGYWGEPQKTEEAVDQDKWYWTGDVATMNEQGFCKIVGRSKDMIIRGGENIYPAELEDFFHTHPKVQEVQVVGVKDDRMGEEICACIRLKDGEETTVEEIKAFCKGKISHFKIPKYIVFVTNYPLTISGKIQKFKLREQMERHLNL
# Sequence of UniProt Q8IUR7 (Q8IUR7 whole entry, looked up): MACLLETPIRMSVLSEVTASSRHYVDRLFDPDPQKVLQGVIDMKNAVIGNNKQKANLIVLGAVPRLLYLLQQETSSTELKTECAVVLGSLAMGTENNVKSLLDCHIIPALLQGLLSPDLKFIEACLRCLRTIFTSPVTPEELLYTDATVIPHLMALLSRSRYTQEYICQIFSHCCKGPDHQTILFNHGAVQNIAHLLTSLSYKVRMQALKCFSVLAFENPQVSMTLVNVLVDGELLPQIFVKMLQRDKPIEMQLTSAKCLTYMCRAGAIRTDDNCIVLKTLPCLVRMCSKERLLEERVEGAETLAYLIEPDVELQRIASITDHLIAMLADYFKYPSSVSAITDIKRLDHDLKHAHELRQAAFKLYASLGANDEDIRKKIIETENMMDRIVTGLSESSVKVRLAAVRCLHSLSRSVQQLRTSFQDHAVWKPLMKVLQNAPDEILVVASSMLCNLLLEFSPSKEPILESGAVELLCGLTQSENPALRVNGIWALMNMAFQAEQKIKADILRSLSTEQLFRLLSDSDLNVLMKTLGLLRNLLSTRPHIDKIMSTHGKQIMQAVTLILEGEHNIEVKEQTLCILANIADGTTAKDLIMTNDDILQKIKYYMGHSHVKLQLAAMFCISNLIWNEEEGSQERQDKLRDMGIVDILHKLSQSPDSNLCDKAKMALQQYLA
# Sequence of UniProt P24666 (P24666 whole entry, looked up): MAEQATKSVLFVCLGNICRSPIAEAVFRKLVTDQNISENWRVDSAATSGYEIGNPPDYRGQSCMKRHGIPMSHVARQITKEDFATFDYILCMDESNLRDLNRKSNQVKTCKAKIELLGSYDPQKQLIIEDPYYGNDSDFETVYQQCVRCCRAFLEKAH
Target,probe-labelled cysteine peptide fold change (10 µM),probe-labelled cysteine peptide fold change (50 µM)
AP3M1_Q9Y2T2_288_ENSSCGR (UniProt Q9Y2T2),0.615,0.181
ANKRD44_Q8N8A2_649_TPLHASVINGHTLCLR (UniProt Q8N8A2),0.0181,-0.0467
ANKRD28_O15084_387_GIHGMFPLHLAALSGFSDCCR (UniProt O15084),0.142,0.103
ATRN_O75882_1361_PIALEPCFGNK (UniProt O75882),-0.269,0.0495
ASPM_Q8IZT6_51_SPFLCFGDVLLGASR (UniProt Q8IZT6),0.088,-0.213
ARIH1_Q9Y4X5_304+307_QFCFNCGENWHDPVK (UniProt Q9Y4X5),-0.107,-1.11
ACSF2_Q96CM8_503_WYWTGDVATMNEQGFCK (UniProt Q96CM8),0.113,-0.245
ACSL5_Q9ULC5_121_AEYLGSCLLHK (UniProt Q9ULC5),-0.0755,0.0449
ACSL4_O60488_157_NTIAIFCETR (UniProt O60488),-0.31,0.409
ALOX5_P09917_419_EQLICECGLFDK (UniProt P09917),-0.117,-0.997
AGL_P35573_957_NDLGHPFCNNLR (UniProt P35573),0.0681,0.0491
ANXA2P2_A6NMY6_9_STVHEILCK<|>ANXA2_P07355_9_STVHEILCK (UniProt P07355+A6NMY6),-0.0855,-0.241
ACTG1_P63261_17_EEEIAALVIDNGSGMCK (UniProt P63261),-0.512,-0.551
ARL14EP_Q8N8R7_119_CTQIINGSVDVDTEDRQK (UniProt Q8N8R7),0.179,-0.325
AHCTF1_Q8WYP5_521_CLVAGLLSPR (UniProt Q8WYP5),-0.0709,-0.461
AIP_O00170_121_HCCGVAQMR (UniProt O00170),-0.297,-1.08
ANKFY1_Q9P2R3_34_CALLAAQANK (UniProt Q9P2R3),0.0817,-0.181
ANAPC1_Q9H1A4_225_EPLPTMFSMLHPLDEITPLVCK (UniProt Q9H1A4),0.139,0.0384
ANKRD16_Q6P6B7_322_SALHLACAGQHLACAK (UniProt Q6P6B7),0.137,-0.262
ALDH3B1_P43353_162_ILAEVLPQYVDQSCFAVVLGGPQETGQLLEHR (UniProt P43353),0.256,-0.223
ASNA1_O43681_53+55_TTCSCSLAVQLSK (UniProt O43681),0.0217,-0.23
ANO10_Q9NW15_124_GFDDNNDDFLTMAECQFIIK (UniProt Q9NW15),-0.185,-0.00539
ATF7IP2_Q5U623_220_QSDNILCSEDSGFVPVEK (UniProt Q5U623),-0.257,0.0575
ARHGEF6_Q15052_514_LDEIEGNDCTFEITGNTVER (UniProt Q15052),-0.0529,0.147

Target,probe-labelled cysteine peptide fold change (10 µM),probe-labelled cysteine peptide fold change (50 µM)
ARHGEF1_Q92888_815_ILSDLLPFCRPGPEGQLAATALR (UniProt Q92888),0.0869,-0.225
APP_P05067_144_MDVCETHLHWHTVAK (UniProt P05067),-0.354,-0.411
ANXA4_P09525_315_VLLVLCGGDD (UniProt P09525),0.12,0.243
ADO_Q96SZ5_183_SRAEYTEASGPCILTPHR (UniProt Q96SZ5),0.0932,0.23
ADAR_P55265_630_LGNSCEFR (UniProt P55265),0.0378,-0.188
ANKRD50_Q9ULJ7_122_AQDSDTLCVGGFIR (UniProt Q9ULJ7),-0.908,-3.64
ACSL1_P33121_625_GFEGSFEELCR (UniProt P33121),-0.088,-0.0942
ANKRD27_Q96NW4_112_EESFSILCIAHPLEK (UniProt Q96NW4),0.198,0.0449
ACP1_P24666_91_QITKEDFATFDYILCMDESNLR (UniProt P24666),-0.236,-1.14
ATG16L1_Q676U5_533_CGSDWTR (UniProt Q676U5),-0.0167,0.12
ASH2L_Q9UBL3_362_YILAEPDPHAPDPEKLELDCWAGKPIPGDLYR (UniProt Q9UBL3),-0.239,-0.486
ACSL1_P33121_297_NIVSDCSAFVK (UniProt P33121),-0.0463,-0.0348
ATF7_P17544_409_DCPVTALQK (UniProt P17544),-0.183,-0.603
ARHGAP1_Q07960_91_KIIVFSACR (UniProt Q07960),-0.157,-0.255
ARAP1_Q96P48_38_ALHLEQYTGLFEQHGLVWATECQGLSDTR (UniProt Q96P48),0.171,0.379
ANLN_Q9NQW6_437_ELACLR (UniProt Q9NQW6),-0.0466,-0.263
ARMC8_Q8IUR7_168_YTQEYICQIFSHCCK (UniProt Q8IUR7),0.103,0.182
AP3B1_O00203_215_STLVAGSVVMAFEEVCPDRIDLIHK (UniProt O00203),-0.0855,-0.052
ALDH9A1_P49189_376_DGYYMRPCVLTNCR (UniProt P49189),0.0599,-0.0147
AHCY_P23526_297_HFEQMKDDAIVCNIGHFDVEIDVK (UniProt P23526),0.148,-0.164
ALDH1L1_O75891_707_GENCIAAGR (UniProt O75891),-1.08,-1.51
ATP6V1A_P38606_138_DIKWDFTPCK (UniProt P38606),-1.4,-4.16
APEH_P13798_312_LSPDQCR (UniProt P13798),-0.0871,-0.181
ARAP1_Q96P48_995_KCGQTSK (UniProt Q96P48),-0.601,-2.68
